From PubChem BioAssay AID493208 (National Center for Advancing Translational Sciences (NCATS), 2011)
Among all 44,000 compounds or so, about 340 (0.77%) were called active. Inconclusive results (about 5%) are left out. Calls come from the whole dose curve; as a rule, active = well fitted inhibition curve with a large enough effect; inconclusive = small, poorly fitted or top-dose-only effect; inactive = flat fitted curve, though single readings scatter. The list shows a part of the results.

test: Acumen qHTS Assay for Inhibitors of the mTORC1 Signaling Pathway in MEF (Tsc2-/-, p53-/-) Cells: Sytravon; details: phospho-rpS6 immunofluorescence/PI, 24 h; series mostly up to 38.3 µM; activity change, negative = inhibition: at the top concentration;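 note: plate controls were DMSO for no effect and rapamycin for full effect; nearly all actives have a fitted effect of over 50% in size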
Method in brief: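 Immunofluorescence of rpS6 phosphorylation in Tsc2-/-, p53-/- MEFs after 24 h compound exposure, normalized to propidium iodide signal. Activity is expressed as % positive cells, thresholded with 7.5 nM rapamycin.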

Activity change, negative = inhibition, inactive:
O=C(Cn1nc(Cc2cccnc2)c2ccccc2c1=O)Nc1ccc(F)c(Cl)c1 -2.13%
CCC(C(=O)Nc1cc(C(F)(F)F)ccc1Cl)n1nc(C)c2sc3ccccc3c2c1=O (stereo not drawn) -1.2%
COc1ccccc1CNC(=O)Cn1nc(C)n2cccc2c1=O -2.12%
O=C(Cn1cnc2onc(-c3ccc(F)cc3)c2c1=O)N1CCN(c2ccc(F)cc2)CC1 -0.371%
CCc1cccc(NC(=O)CSc2ncc3c(n2)-c2cc(Cl)ccc2N(C)S3(=O)=O)c1 2.78%
COc1ccccc1CNC(=O)CCn1c(=O)c2ccccc2n(CC(=O)Nc2cc(Cl)ccc2C)c1=O -24.3%
O=c1cc(COc2ccccc2Cl)nc2scc(-c3ccccc3)n12 1.86%
Cc1ccc(C2NC(=O)c3n[nH]c(-c4cccs4)c32)cc1 (stereo not drawn) 2.46%
Cc1ccc(Cl)cc1N1CCN(C(=O)Cn2nc(C)c3sc4ccccc4c3c2=O)CC1 -0.654%
CCC(C)NC(=O)CCSc1nc(-c2ccc3c(c2)OCO3)cc(C(F)(F)F)n1 (stereo not drawn) -6.9%
COc1ccc(NC(=O)CCS(=O)(=O)c2nc(-c3ccc4c(c3)OCO4)cc(C(F)(F)F)n2)cc1OC -0.0245%
O=C(Nc1cccc(C(=O)OCc2cc(=O)n3c4c(sc3n2)CCCC4)c1)c1cccc(F)c1 0%
Cc1ccc(NC(=O)CSc2nc3ccc(NC(=O)c4ccco4)cc3s2)cc1 0%
COc1ccc(C2CC(=O)c3cc(-c4nc(-c5cccc([N+](=O)[O-])c5)cs4)c(=O)n(-c4cccc(C)c4)c3C2)cc1 (stereo not drawn) 0.464%
COC(=O)c1c(NC(=O)Cc2coc3cc(C)cc(C)c23)sc2c1CCC2 -2.16%
COc1cc(C(=O)NCc2ccc3c(c2)CCN3C(=O)c2ccc(Cl)cc2)cc(OC)c1OC 0.181%
Cc1ccc(NC(=O)CSc2nc(=O)n(Cc3ccccn3)c3c2CCC3)cc1F 0.327%
COCCNC(=O)c1c(NC(=O)c2cc(=O)c3cc(C)cc(C)c3o2)sc2c1CCCC2 2.15%
O=C(Nc1ccccc1Cl)N1CCC2(CC1)Oc1ccccc1C(=O)N2Cc1ccc(F)cc1 1.21%
CCc1ccc(NC(=O)c2cnc3c(-c4ccccc4)c(C)nn3c2C)cc1 -0.0154%
CC(=O)c1ccc(NC(=O)c2ccc(-c3nc(CSc4ccc(C)cc4)c(C)o3)cc2)cc1 -2.66%
COc1cccc(Cn2c(C)c(CNCc3cccc(C)c3)c(C(=O)O)c2C)c1 -1.81%
Cc1cccc(NC(=O)CSc2nc(-c3cccs3)nc3cc(=O)[nH]n23)c1 -7.77%
O=C(CSc1nc2ccccc2nc1Cc1ccccc1)N1CCc2ccccc21 7.02%
Cc1cccc(-c2nc3c4ccccc4nc(N4CCN(c5cccc(Cl)c5)CC4)n3n2)c1 1.34%
COc1ccc(-c2c3c(nc4sc(C(=O)Nc5cccc(OC)c5)c(N)c24)CC(C)(C)CC3=O)cc1 5.25%
Cc1cc(C)n2nc(CNS(=O)(=O)c3cccc(Cl)c3)nc2n1 -1.1%
Cc1cc(C(=O)N2CCN(c3ccccc3F)CC2)c2c(C)nn(-c3ccccc3)c2n1 -0.0544%
Cc1cc(C)c2oc(-c3cccc(NC(=O)c4cccc(F)c4)c3C)nc2c1 0.309%
CCC(C)NC(=O)c1ccc(CNS(=O)(=O)c2ccc3c(c2)C(C)(C)C(=O)N3C)cc1 (stereo not drawn) -3.08%
CCc1ccc(S(=O)(=O)Nc2ccc3c(c2)sc(=O)n3C)cc1 3.2%
Cc1ccc(Cl)cc1NC(=O)CN1C=NS(=O)(=O)c2ccccc21 -2.13%
Cc1cccc(Cn2c(=O)n(-c3cc(C)cc(C)c3)c(=O)c3oc4ccccc4c32)c1 -3.27%
CCc1nn(CCCC(=O)NCc2ccccc2OC)c(=O)c2cc3occc3n12 0.25%
Cc1cc(C)c2c(n1)nn1c(C)c(CCC(=O)Nc3cccc(C)c3C)c(C)nc21 0.714%
Cc1ccc(Cl)cc1N1CCN(C(=O)C2CCN(S(=O)(=O)c3cn(C)cn3)CC2)CC1 2.28%
Cc1cccc(N2CCN(CCCNC(=O)Cn3ncc4c([nH]c5ccccc54)c3=O)CC2C)c1 (stereo not drawn) -8.58%
COc1ccc(N(C)C(=O)Cn2cnc3sc(C)c(S(=O)(=O)N4CCN(c5ncccn5)CC4)c3c2=O)cc1 7.49%
Cc1ccc(-c2nc3cccc(C)n3c2Nc2ccc3c(c2)OCCO3)cc1 -8.45%
O=C(NCCS(=O)(=O)N1CCN(c2cccc(Cl)c2)CC1)C(c1ccccc1)c1ccccc1 -1.31%
CCOCCCn1c(=N)c(C(=O)NC2CCCCC2)cc2c(=O)n3ccccc3nc21 -20.6%
COC(=O)c1c(NC(=O)c2cc(=O)c3c(C)cc(C)cc3o2)sc2c1CCCC2 -5.46%
Cc1cccc(NC(=O)CN(c2ccc(C(C)C)cc2)S(=O)(=O)c2c(C)nn(C)c2C)c1C -10.2%
CCOC(=O)C1CCN(S(=O)(=O)c2cc(-c3onc(C)c3C)ccc2C)CC1 2.97%
CC(=O)N1CCCc2cc(S(=O)(=O)N3CCC(C(=O)N(Cc4ccccc4)C(C)C)CC3)ccc21 -6.61%
COCCn1c(C)cc(O)c(C(c2ccccc2)N2CCC(C)CC2)c1=O (stereo not drawn) 9.46%
CCc1ccccc1Nc1cc(C(=O)NCc2ccc(C)cc2)c2ccccc2n1 -0.0204%
COc1ccc(N2C(=O)CSC23C(=O)N(C)c2ccccc23)cc1Cl (stereo not drawn) -0.54%
O=C(c1c2c(nc3ccccc13)C(=O)N(C1CCCCC1)C2)N1CCN(c2ccc(F)cc2)CC1 -4.79%
CCOC(=O)N1CCN(C(=O)c2ccc3c(c2)N(Cc2ccccc2F)C(=O)c2ccccc2S3=O)CC1 (stereo not drawn) 0.14%
CCOC(=O)c1c(S(=O)(=O)N2CCCC(C(=O)Nc3ccc(OCC)cc3)C2)c(C)n(C)c1C (stereo not drawn) -6.33%
COc1ccc(C)cc1Nc1nc2c(S(=O)(=O)c3cccc(Cl)c3)nnn2c2ccsc12 -1.5%
Cc1ccc(S(=O)(=O)c2cn(Cc3cccc(F)c3)c3cc(N4CCCC4)c(F)cc3c2=O)cc1 -3.55%
Cc1ccc(-c2cc(NC(=O)c3ccccc3Cl)on2)cc1 5.71%
CCCOc1ccccc1-c1nc(SCC(=O)c2ccccc2)n[nH]1 -5.44%
CCOc1cc(CNS(=O)(=O)c2ccc3c(c2)CC(=O)N3C)cc(OCC)c1OCC 1.8%
O=C(Nc1ccc(C(=O)N2CCN(c3ccc(F)cc3)CC2)cc1)c1nsc2ccccc12 16.6%
CCN1CCN(CCCNC(=O)c2ccc3nc(Cc4ccc(OC)cc4)oc3c2)CC1 -0.308%
